Legend:
[1] = biological target: C-Met-Rluc and C-Met-K1100A-YFP co-expressed in a CHO stable cell line (c-Met dimerization BRET model) (R. reniformis), P08581; experiment: cell-based or functional assay
[2] = biological target: C-Met-Rluc expressed with a mutated form of Gab1 fused to YFP in a CHO stable cell line (c-Met activation BRET model) (R. reniformis), P08581; experiment: cell-based or functional assay

inhibition of the HGF induced c-Met dimerization BRET signal [1]: 64.4%
BRET signal with Mab alone, c-Met activation model [2]: -6.9%
inhibition of the HGF induced activation BRET signal [2]: 73.8%
B1: [224G11][TH7 chim] (antibody)
heavy: EVQLQQSGPELVKPGASVKISCKTSGYIFTAYTMHWVRQSLGESLDWIGGIKPNNGLANYNQKFKGKATLTVDKSSSTAYMDLRSLTSEDSAVYYCARSEITTEFDYWGQGTALTVSSASTKGPSVFPLAPSSKSTSGGTAALGCLVKDYFPEPVTVSWNSGALTSGVHTFPAVLQSSGLYSLSSVVTVPSSSLGTQTYICNVNHKPSNTKVDKRVEPKSCDCH[human IgG1 Fc not listed]
light: DIVLTQSPASLAVSLGQRATISCRASESVDSYANSFMHWYQQKPGQPPKLLIYRASNLESGIPARFSGSGSRTDFTLTINPVEADDVATYYCQQSKEDPLTFGSGTKLEMKRTVAAPSVFIFPPSDEQLKSGTASVVCLLNNFYPREAKVQWKVDNALQSGNSQESVTEQDSKDSTYSLSSTLTLSKADYEKHKVYACEVTHQGLSSPVTKSFNRGEC

Source: patent WO2010064089A1
